Drawing on the supplement of paper PMC10369915, this text covers enrichment score for 19 molecules.

The list shows a part of the results. No stated cut-off is given here; in the data, active = 3.2 or more and inactive = the rest. Most of these values are background signal.
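Further: displayed peptides selected on beads carrying the immobilized SH2 domain, with library peptides lacking any tyrosine serving as negative controls.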

One assay addresses SHP2 C-SH2 domain E139D. The assay can be described thus: enrichment score (SH2-bound / input frequency) (ratio); bacterial display of known human phosphotyrosine sites (pTyr-Var adds point mutants) read by sequencing; higher = stronger binding; tyrosines were phosphorylated by kinases first. Particulars: peptide library: pTyr-Var.
IMFTSYFLTIL [TAS2R16_Y239_V235M]: the enrichment score was inactive: 2.98.

In the case of VNTTLYEKFTF [TEK_Y1108_YF], the enrichment score was inactive: 1.03.

As for QPSPSYDSSRG [TCF12_Y70], the enrichment score is inactive: 0.452.

As to IVFTSYFLTIL [TAS2R16_Y239], the enrichment score was inactive: 3.17.

EERKTYVNTML [TEK_Y1102_T1106M]: the enrichment score was inactive: 1.16.

Consider IVFTSYVLTIL [TAS2R16_Y239_F240V], for which the enrichment score is inactive: 2.42.

EVTRLYGSVCD [TC2N_Y154_K151T]: the enrichment score is inactive: 1.01.

As to TAGFIYEKWEI [TEC_Y360_S359I], the enrichment score is inactive: 1.9.

With VNTTLYEKFTY [TEK_Y1108], the enrichment score was inactive: 0.871.

As to NQELIYEGRRL [TBK1_Y354], the enrichment score is inactive: 0.512.

As for QKNVSYVSRVS [TASOR_Y1043_T1046R], the enrichment score was inactive: 0.936.

For the molecule FQEPVYSVAFS [TBL1X_Y509_H504Y_YF], the enrichment score was inactive: 1.13.

On to SSPQPYLVPFL [TAF4_Y652], for which the enrichment score was inactive: 1.02.

Consider VNTMLYEKFTY [TEK_Y1108_T1106M], for which the enrichment score was inactive: 1.48.

In the case of QPSPSYDSSGG [TCF12_Y70_R74G], the enrichment score is inactive: 0.537.

Regarding DPHQQYYIAMD [TBX15_Y159], the enrichment score is inactive: 0.855.

Turning to DFPIGYPSYLA [TBCK_Y153], the enrichment score was inactive: 0.988.

EVKRLYGSVCD [TC2N_Y154]: the enrichment score was inactive: 0.563.

Consider DGQSVYKLTDF [TBK1_Y153], for which the enrichment score was inactive: 0.667.

The target in the next assay is SHP2 C-SH2 domain wild-type. The assay is described as above. Particulars: peptide library: pTyr-Var.
Regarding IMFTSYFLTIL [TAS2R16_Y239_V235M], the enrichment score is active: 3.84.

Take VNTTLYEKFTF [TEK_Y1108_YF]: the enrichment score was inactive: 0.973.

Regarding QPSPSYDSSRG [TCF12_Y70], the enrichment score is inactive: 0.499.

Regarding IVFTSYFLTIL [TAS2R16_Y239], the enrichment score is active: 3.22.

On to EERKTYVNTML [TEK_Y1102_T1106M], for which the enrichment score is inactive: 1.37.

With IVFTSYVLTIL [TAS2R16_Y239_F240V], the enrichment score is inactive: 2.42.

On to EVTRLYGSVCD [TC2N_Y154_K151T], for which the enrichment score was inactive: 1.06.

Take TAGFIYEKWEI [TEC_Y360_S359I]: the enrichment score is inactive: 1.71.

For the molecule VNTTLYEKFTY [TEK_Y1108], the enrichment score is inactive: 1.06.

As for NQELIYEGRRL [TBK1_Y354], the enrichment score is inactive: 0.644.

Regarding QKNVSYVSRVS [TASOR_Y1043_T1046R], the enrichment score is inactive: 0.641.

Consider FQEPVYSVAFS [TBL1X_Y509_H504Y_YF], for which the enrichment score was inactive: 1.1.

With SSPQPYLVPFL [TAF4_Y652], the enrichment score is inactive: 1.36.

Take VNTMLYEKFTY [TEK_Y1108_T1106M]: the enrichment score is inactive: 1.18.

Take QPSPSYDSSGG [TCF12_Y70_R74G]: the enrichment score was inactive: 0.654.

With DPHQQYYIAMD [TBX15_Y159], the enrichment score was inactive: 0.848.

Take DFPIGYPSYLA [TBCK_Y153]: the enrichment score is inactive: 0.708.

Take EVKRLYGSVCD [TC2N_Y154]: the enrichment score was inactive: 0.856.

Turning to DGQSVYKLTDF [TBK1_Y153], the enrichment score was inactive: 0.567.

The next assay addresses SHP2 N-SH2 domain L43F. The description is as above. To be noted: peptide library: pTyr-Var.
Take IMFTSYFLTIL [TAS2R16_Y239_V235M]: the enrichment score was inactive: 2.83.

Turning to VNTTLYEKFTF [TEK_Y1108_YF], the enrichment score was inactive: 1.17.

Consider QPSPSYDSSRG [TCF12_Y70], for which the enrichment score was inactive: 0.477.

As for IVFTSYFLTIL [TAS2R16_Y239], the enrichment score is active: 3.36.

As for EERKTYVNTML [TEK_Y1102_T1106M], the enrichment score was inactive: 1.18.

As for IVFTSYVLTIL [TAS2R16_Y239_F240V], the enrichment score is inactive: 2.42.

As for EVTRLYGSVCD [TC2N_Y154_K151T], the enrichment score was inactive: 0.888.

TAGFIYEKWEI [TEC_Y360_S359I]: the enrichment score is inactive: 2.03.

On to VNTTLYEKFTY [TEK_Y1108], for which the enrichment score is inactive: 0.955.

Turning to NQELIYEGRRL [TBK1_Y354], the enrichment score is inactive: 0.542.

QKNVSYVSRVS [TASOR_Y1043_T1046R]: the enrichment score was inactive: 0.796.

In the case of FQEPVYSVAFS [TBL1X_Y509_H504Y_YF], the enrichment score is inactive: 1.08.

Turning to SSPQPYLVPFL [TAF4_Y652], the enrichment score is inactive: 3.19.

For the molecule VNTMLYEKFTY [TEK_Y1108_T1106M], the enrichment score was inactive: 1.13.

On to QPSPSYDSSGG [TCF12_Y70_R74G], for which the enrichment score was inactive: 0.781.

As for DPHQQYYIAMD [TBX15_Y159], the enrichment score is inactive: 0.818.

Regarding DFPIGYPSYLA [TBCK_Y153], the enrichment score was inactive: 0.989.

With EVKRLYGSVCD [TC2N_Y154], the enrichment score is inactive: 0.645.

As for DGQSVYKLTDF [TBK1_Y153], the enrichment score was inactive: 0.513.

Another assay has as its target SHP2 N-SH2 domain T42A. Described as above. Particulars: peptide library: pTyr-Var.
Regarding IMFTSYFLTIL [TAS2R16_Y239_V235M], the enrichment score was inactive: 2.33.

With VNTTLYEKFTF [TEK_Y1108_YF], the enrichment score is inactive: 1.21.

For QPSPSYDSSRG [TCF12_Y70], the enrichment score is inactive: 0.186.

For IVFTSYFLTIL [TAS2R16_Y239], the enrichment score was inactive: 2.78.

In the case of EERKTYVNTML [TEK_Y1102_T1106M], the enrichment score was inactive: 1.11.

As for IVFTSYVLTIL [TAS2R16_Y239_F240V], the enrichment score was inactive: 2.39.

For the molecule EVTRLYGSVCD [TC2N_Y154_K151T], the enrichment score was inactive: 0.766.

Turning to TAGFIYEKWEI [TEC_Y360_S359I], the enrichment score is inactive: 1.59.

For the molecule VNTTLYEKFTY [TEK_Y1108], the enrichment score is inactive: 0.847.

As to NQELIYEGRRL [TBK1_Y354], the enrichment score is inactive: 0.56.

On to QKNVSYVSRVS [TASOR_Y1043_T1046R], for which the enrichment score was inactive: 0.685.

As for FQEPVYSVAFS [TBL1X_Y509_H504Y_YF], the enrichment score was inactive: 1.

For the molecule SSPQPYLVPFL [TAF4_Y652], the enrichment score is active: 5.15.

As to VNTMLYEKFTY [TEK_Y1108_T1106M], the enrichment score was inactive: 1.14.

With QPSPSYDSSGG [TCF12_Y70_R74G], the enrichment score is inactive: 0.792.

DPHQQYYIAMD [TBX15_Y159]: the enrichment score is inactive: 0.779.

As to DFPIGYPSYLA [TBCK_Y153], the enrichment score was inactive: 0.667.

With EVKRLYGSVCD [TC2N_Y154], the enrichment score was inactive: 0.459.

Turning to DGQSVYKLTDF [TBK1_Y153], the enrichment score is inactive: 0.577.

For another assay, the target named is SHP2 N-SH2 domain T52S. The description is as above. Particulars: peptide library: pTyr-Var.
For the molecule IMFTSYFLTIL [TAS2R16_Y239_V235M], the enrichment score is inactive: 2.07.

As to VNTTLYEKFTF [TEK_Y1108_YF], the enrichment score was inactive: 1.1.

Consider QPSPSYDSSRG [TCF12_Y70], for which the enrichment score was inactive: 0.545.

On to IVFTSYFLTIL [TAS2R16_Y239], for which the enrichment score was inactive: 3.05.

Consider EERKTYVNTML [TEK_Y1102_T1106M], for which the enrichment score is inactive: 1.2.

IVFTSYVLTIL [TAS2R16_Y239_F240V]: the enrichment score was inactive: 2.35.

For EVTRLYGSVCD [TC2N_Y154_K151T], the enrichment score was inactive: 0.715.

With TAGFIYEKWEI [TEC_Y360_S359I], the enrichment score is inactive: 1.92.

VNTTLYEKFTY [TEK_Y1108]: the enrichment score was inactive: 0.853.

On to NQELIYEGRRL [TBK1_Y354], for which the enrichment score was inactive: 0.575.

As to QKNVSYVSRVS [TASOR_Y1043_T1046R], the enrichment score is inactive: 0.702.

FQEPVYSVAFS [TBL1X_Y509_H504Y_YF]: the enrichment score was inactive: 1.06.

Take SSPQPYLVPFL [TAF4_Y652]: the enrichment score was active: 3.55.

Turning to VNTMLYEKFTY [TEK_Y1108_T1106M], the enrichment score is inactive: 1.19.

As for QPSPSYDSSGG [TCF12_Y70_R74G], the enrichment score was inactive: 0.599.

For DPHQQYYIAMD [TBX15_Y159], the enrichment score is inactive: 0.822.

Regarding DFPIGYPSYLA [TBCK_Y153], the enrichment score was inactive: 0.929.

In the case of EVKRLYGSVCD [TC2N_Y154], the enrichment score is inactive: 0.645.

As to DGQSVYKLTDF [TBK1_Y153], the enrichment score is inactive: 0.65.

The next assay addresses SHP2 N-SH2 domain wild-type. Described as above. Particulars: peptide library: pTyr-Var.
With IMFTSYFLTIL [TAS2R16_Y239_V235M], the enrichment score is active: 3.87.

Regarding VNTTLYEKFTF [TEK_Y1108_YF], the enrichment score was inactive: 0.817.

Take QPSPSYDSSRG [TCF12_Y70]: the enrichment score was inactive: 0.43.

Consider IVFTSYFLTIL [TAS2R16_Y239], for which the enrichment score is active: 3.57.

Regarding EERKTYVNTML [TEK_Y1102_T1106M], the enrichment score is inactive: 1.29.

On to IVFTSYVLTIL [TAS2R16_Y239_F240V], for which the enrichment score was inactive: 2.5.

In the case of EVTRLYGSVCD [TC2N_Y154_K151T], the enrichment score is inactive: 1.19.

In the case of TAGFIYEKWEI [TEC_Y360_S359I], the enrichment score was inactive: 1.61.

For the molecule VNTTLYEKFTY [TEK_Y1108], the enrichment score is inactive: 0.925.

Turning to NQELIYEGRRL [TBK1_Y354], the enrichment score is inactive: 0.627.

Take QKNVSYVSRVS [TASOR_Y1043_T1046R]: the enrichment score is inactive: 0.786.

Take FQEPVYSVAFS [TBL1X_Y509_H504Y_YF]: the enrichment score was inactive: 1.19.

SSPQPYLVPFL [TAF4_Y652]: the enrichment score was inactive: 1.22.

On to VNTMLYEKFTY [TEK_Y1108_T1106M], for which the enrichment score is inactive: 1.36.

In the case of QPSPSYDSSGG [TCF12_Y70_R74G], the enrichment score was inactive: 0.55.

DPHQQYYIAMD [TBX15_Y159]: the enrichment score was inactive: 0.84.

Regarding DFPIGYPSYLA [TBCK_Y153], the enrichment score was inactive: 0.863.

For the molecule EVKRLYGSVCD [TC2N_Y154], the enrichment score was inactive: 0.768.

Consider DGQSVYKLTDF [TBK1_Y153], for which the enrichment score is inactive: 0.732.
